For 34 variants, self-cleavage results are on record in the RNAGym collection of RNA variant scans (doi:10.1093/nar/gkz1192).

The source gives no read counts; variants with many changes may rest on few reads.

B1: CPEB3 Ribozyme (parent)
chain: UAACAGGGGGCCACAGCAGAAGCGUUCACGUCGCAGCCCCUGUCAGAUUCUGGUGAAUCUGCGAAUUCUGCUGUAUAUCUC

The variants in the data set derive from B1. The data set is described as follows: self-cleavage, relative activity (ratio to wild type); higher = more cleavage; in vitro, sequencing. Put shortly:
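Barcoded CPEB3 ribozyme mutants, produced by rounds of error-prone PCR, self-cleaved while being transcribed with T7 RNA polymerase for 5 hours at 37°C and during a subsequent 15 min DNase I step before EDTA was added. Sequencing of template-switched cDNA on Illumina gave cleaved and total reads, and DNA sequencing assigned barcodes to variants. Each variant's relative activity is its cleaved/total read fraction divided by the unmutated ribozyme's fraction, averaged across three batches. A variant needed a minimum of 5 reads.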
Regarding UAACAGGGGGCCACAGCUGACGCGUUCACGUCGCAGCCCCUGUCGGUUUCUGGUGAAUCUGCGAAUUCUGAUGUAUAUCUC, the self-cleavage turned out to be 0.07.

Consider UAACAGGGGGCCACAGCUGAAGCGUUCCCGUCGCAGCCCCUGUCAGAUUCUGGUGGAUCUGCGAAUUCCGCUGUAUAUCUC, for which the self-cleavage came out at 0.08.

On to UAACAGGGGGCCACAGCUGAGGCGUUCGCGUCGCAGCCCCUGUCAGAUUCUGGUGAAUCUGCGACUUCUGCUGUAUAUCUC, for which the self-cleavage was 0.18.

With UAACAGGGGGCCACAGCUGAGGAGUUCACGUCGCAUCCCCUGUCAGAUUCUGGUGAAUCUGCGAAUUCUGCUGUAUAUCUC, the self-cleavage was determined as 0.13.

As to UAACAGGGGGCCACAGCUGAGGCGUUCACGUCGCAGCCCCUGCCAGAUUCUGGGGAAUCUGCGAAUUCUGCUGUAUAUCUC, the self-cleavage stood at 0.13.

Turning to UAACAGGGGGCCACAGCUGAGGCGUUCCCGUCGCAGCCCCUGUCGGAUUCUGGUGAAUCCGCGGAUUCUGCUGCAUAUCUC, the self-cleavage amounted to 0.

For UAACAGGGGGCCACAGCUGAGGCGUUCACGUCGCAGCCCCUGACAGAUUCUGGUGAAUCUGCGCAUUCUGCUGUAUAUCUC, the self-cleavage stood at 0.14.

UAACAGGGGGCCACAGCUGAGGCGUUCACGUCGCAGCCCAUGUCAGAUUCUGGUGAAUCUGCGAAUUCUGCUGUAUAUCUC: the self-cleavage was 0.24.

With UAACAGGGGGCCACAGCUGAAGCGUUCCCGUCGCAGCCCCUGUCAGAUUCUGGUUAAUCUGCGAAUUCAGCUGUAUAUCAC, the self-cleavage was 0.58.

As to UAACAGGGGGCCACAGCUGUAGCGUUCACGUCGCAGCCCCUGUCAGGUUCUGGUGAAUCUGCGAAUUCUGCUGUAUAUCCC, the self-cleavage was determined as 0.37.

Take UAACAGGGGGCCACAGCUGAGGCGUUCACGUCGCAGCCCCUGUCAGAUUCUGGUGAACCAGCGAAUUCUGCUGUAUAUCUC: the self-cleavage is 0.19.

With UAACAGGGGGCCACAGCUGAGGCGUUCACGUCGCAGCCCCUUUCAGAUUCUGGUGAAUCUGCGAAUUCUGCUGUAUAUCUC, the self-cleavage was 0.32.

For the variant UAACAGGGGGCCACAGCUGAGGCGUUCACGUCGCAGCCCCUGUCAGAUUCUGGUGAAUCUGCGAGCUCUGCUGUAUAUCCC, the self-cleavage was 0.08.

Regarding UAACAGGGGGCCACAGCUGAUGCGUUCACGUAGCAGCCCCUGUCAGAUUCUGGUGAAUCAGAGAAUUCUGCUGUAUAUCUC, the self-cleavage came out at 0.05.

For the variant UAACAGGGGGCCACAGCUGAUGCGUUCCCGUCGCAGCCCCUGUCAGAUUCUGGUGAAUCUGCGAAUUCUGCUGUAUAUCUC, the self-cleavage is 0.07.

UAACAGGGGGCCACAGCUGUAGCGUUCACGUCGCGGCCCCUGUCAGAUUCUGGUGAAUCUGCGAAUUCCGCUGUAUAUCUC: the self-cleavage is 0.36.

Consider UAACAGGGGGCCACAGCUGAUGCGCUCACGUCGCAGCCCGUGUCAGAUUCUGGUGAAUCUGCGAAUUCUGCUGUAAAUCUC, for which the self-cleavage is 0.17.

Consider UAACAGGGGGCCACAGCUGAUGCGCUCACGUCGCAGCCCCUGUCAGAUACUGGUGAAUCUGCGAAUUCUGCUGUAUAUCUC, for which the self-cleavage stood at 0.06.

In the case of UAACAGGGGGCCACAGCUGAGGCGUUCACGUCGCUGCCCCUGUCAGAUUCUGGCGAAACUGCGAAUUCCGCUGUAUAUCUC, the self-cleavage was 0.11.

As for UAACAGGGGGCCACAGCUGUAGCGUUCACGUCGCAGCCCCUGUCAGCUUCUGGUGAAUCUGCGAAUUCUGCUGUAUAUCUC, the self-cleavage was found to be 0.2.

Turning to UAACAGGGGGCCACAGCUGAAGCGUUCCUGUCGCGGCCCCUGCCGGAUUCUGGUGAAUCUGUGAAUUCUGCUGUAUAUCUC, the self-cleavage was 0.05.

Consider UAACAGGGGGCCACAGCUGAAGCGUUCCCGUCGCAGCCCCUGUCAGAUACUGCUGAAUCUGAGAAUCCUACUGUAUAUCUC, for which the self-cleavage was found to be 0.04.

Turning to UAACAGGGGGCCACAGCUGAGGCGUUCACGUCGCAGCCCCAGUCAGAUUCCGGUGAAUCUGCGAAUUCUUCUGUAUACCUC, the self-cleavage came out at 0.1.

In the case of UAACAGGGGGCCACAGCUGAGGCGCUCACGUCGCAGCCCCUGUCAGAUCCUGGUGGAUCUGCGAAUCCUGCUGUAUAUCUC, the self-cleavage came to 0.05.

Regarding UAACAGGGGGCCACAGCUGAGGCGUUCACGUUGCAGCCCCUGUCAGAUUCUGGUGAGUCUGCGAAUUCUGCUGUUUAUCUC, the self-cleavage was 0.35.

With UAACAGGGGGCCACAGCUGAGGCGUUCACGUCGCAGCCCCUGUCUGAUUCUGGUGAAUCUGCUAAUUCUGCAGUAUAUCUC, the self-cleavage stood at 0.05.

For UAACAGGGGGCCACAGCUGAGGCGUUCACGUCACGGCCCCCGUCAGAUUCUGGUGAAUCUGCGAAUUCUGCUGUAUAUCUC, the self-cleavage is 0.35.

In the case of UAACAGGGGGCCACAGCUGAAGCGUUCCCGUCGCAGCCUCUGUCAGAUUAUGGUGAAUCUGCGAAUUCUGCUGUUUAUCUC, the self-cleavage was determined as 0.07.

Take UAACAGGGGGCCACAGCUGAGGCGUUCACGUCGCAGCCCCUGUCAGAUUCUGGUGAAUCUGCGGAUUCCGCUGUAUAUCUC: the self-cleavage amounted to 0.18.

Take UAACAGGGGGCCACAGCUGAGGCCUUCACGUCGCAGCCCCUGUCAGAUUCUGGUGAAUCUGCGAAUACUGCAGUAUAUCUC: the self-cleavage came out at 0.11.

As for UAACAGGGGGCCACAGCUGAGGCGUCCACGUCGCAGCCCCUGUCAGAUUCUGGUGAAUCUGUGAACUCUGCUGAAUAUCUC, the self-cleavage came to 0.11.

For the variant UAACAGGGGGCCACAGCUGUAGCGUUCACGUCGCAGCCCCUGUCAGAUUCUGGUGGAUCUGCGAAUUCUGCUGUAUAUCAC, the self-cleavage was determined as 0.28.

As for UAACAGGGGGCCACAGCUGUAGCGUUCACGUCGCAGCCCCUGUCAGAUUCUGGUGAAUCUGCGAAUUCUGCCGUAUAUCUC, the self-cleavage came out at 0.21.

Take UAACAGGGGGCCACAGCUGACGCGUUCACGUCGCAGCCCCUGUCUGAUUCUGGUGAAUCUGCGAAUACUGCUGUAUAUCUC: the self-cleavage was 0.09.
